Results reported in the supplement of paper PMC10441789.
The other results are listed elsewhere or left out. Antibody binding of pooled human sera (four to six donors per pool; dilution not stated) to peptides of the Trypanosoma cruzi antigen TSSA on microarrays. Quantile-normalised fluorescence in arbitrary units, mean of duplicate arrays; higher = more binding. No active / inactive call. The uninfected pools are read here as the healthy donors of the same country. The strongest signals lie near the top of the scale (about 60,000).

Legend:
Assay in all cases: antibody binding signal (normalised fluorescence) (arbitrary fluorescence units); higher = stronger serum antibody binding to peptide
[1] = test system: pooled sera of chronic Chagas disease patients, Argentina
Protocol: (§1)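 Microarray of 15-residue peptides over residues 30-55 of Trypanosoma cruzi TSSAII, each with 1 to 10 substitutions at naturally variable positions, probed with one serum pool per country.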

[2] = test system: pooled sera of chronic Chagas disease patients, Bolivia
Protocol: as §1

[3] = test system: pooled sera of chronic Chagas disease patients, Brazil
Protocol: as §1

[4] = test system: pooled sera of chronic Chagas disease patients, Colombia
Protocol: as §1

[5] = test system: pooled sera of chronic Chagas disease patients, Mexico
Protocol: as §1

[6] = test system: pooled sera of chronic Chagas disease patients, USA
Protocol: as §1

[7] = test system: pooled sera of uninfected people, Argentina
Protocol: as §1

[8] = test system: pooled sera of uninfected people, Bolivia
Protocol: as §1

[9] = test system: pooled sera of uninfected people, Brazil
Protocol: as §1

[10] = test system: pooled sera of uninfected people, Mexico
Protocol: as §1

[11] = test system: pooled sera of uninfected people, USA
Protocol: as §1

Sequence | antibody binding signal [1] | antibody binding signal [2] | antibody binding signal [3] | antibody binding signal [4] | antibody binding signal [5] | antibody binding signal [6] | antibody binding signal [7] | antibody binding signal [8] | antibody binding signal [9] | antibody binding signal [10] | antibody binding signal [11]
NKAATGEAPSPPGAS | 12900 | 44200 | 39700 | 398 | 191 | 26800 | 528 | 981 | 302 | 213 | 1280
KEKKAAAGETPSPPG | 149 | 208 | 197 | 178 | 135 | 781 | 123 | 95.3 | 86.1 | 88.5 | 206
GKEKKPAAGEAPSPP | 2570 | 370 | 4480 | 1790 | 3250 | 12600 | 123 | 93.9 | 94.3 | 80.9 | 282
GTEKKPATGGAPSQS | 2360 | 2050 | 4080 | 1380 | 3600 | 1990 | 419 | 1660 | 836 | 396 | 1400
PSGKDNKPATGEAPS | 50000 | 37200 | 47600 | 1250 | 1690 | 43600 | 1160 | 1900 | 384 | 380 | 152
TDKKPATGGAPSPPG | 1500 | 3140 | 1780 | 3270 | 1160 | 2120 | 478 | 1170 | 200 | 195 | 228
PSGKDKKTAAGEAPS | 3490 | 3490 | 2880 | 6930 | 4690 | 5530 | 311 | 218 | 119 | 75.7 | 112
SGTDKKTAAGGAPSP | 216 | 345 | 690 | 12300 | 2580 | 1290 | 234 | 136 | 176 | 472 | 153
GKDKKPAAGGTPSPS | 235 | 173 | 868 | 1380 | 502 | 532 | 116 | 71.5 | 474 | 76.2 | 111
TPPSGKENKPATGGA | 35800 | 19600 | 12800 | 591 | 9380 | 12500 | 4050 | 2840 | 202 | 314 | 735
GTEKKAATGETPSPP | 3200 | 2350 | 12300 | 1550 | 3360 | 13000 | 527 | 700 | 239 | 195 | 1120
TEKKAAAGETPSPPG | 605 | 239 | 1150 | 422 | 355 | 2520 | 137 | 237 | 225 | 262 | 1150
PSGKDNKAAAGGTPS | 1740 | 416 | 2390 | 5100 | 4320 | 3240 | 219 | 230 | 245 | 81.6 | 84.3
PPSGKEKKTATGGAP | 2570 | 375 | 1480 | 1460 | 3070 | 2920 | 421 | 336 | 110 | 130 | 204
SGKENKPATGGTPSP | 3470 | 646 | 17000 | 3780 | 5010 | 17700 | 10000 | 3870 | 189 | 408 | 189
GKEKKAATGEAPSQP | 19100 | 17000 | 31900 | 7990 | 9830 | 20500 | 283 | 110 | 102 | 92.3 | 117
DNKPATGETPSQPGA | 26300 | 26000 | 36100 | 335 | 283 | 20000 | 271 | 531 | 518 | 1480 | 206
SGKENKAAAGGTPSP | 3220 | 2350 | 17200 | 8800 | 3970 | 16600 | 5310 | 1250 | 425 | 217 | 149
TPPSGTENKAAAGGA | 50600 | 44400 | 49900 | 3610 | 2670 | 19800 | 3780 | 613 | 978 | 389 | 2310
GKDNKAAAGGTPSQP | 325 | 235 | 457 | 1020 | 559 | 1060 | 215 | 280 | 262 | 160 | 103
TPPSGTDKKAAAGGA | 22900 | 4420 | 30400 | 5120 | 39600 | 2000 | 718 | 199 | 439 | 1000 | 271
ENKPATGGAPSQPGA | 2390 | 15400 | 32100 | 372 | 900 | 4690 | 397 | 1060 | 338 | 313 | 372
PPSGKEKKTAAGETP | 1310 | 1040 | 2200 | 1580 | 3400 | 2940 | 366 | 606 | 92.5 | 153 | 151
DNKTATGEAPSQPGA | 15300 | 35500 | 42300 | 364 | 645 | 20000 | 203 | 117 | 243 | 212 | 153
SGKDKKTAAGEAPSP | 468 | 229 | 545 | 795 | 829 | 4920 | 158 | 78.9 | 90.5 | 72.5 | 74.7
GKDKKTATGETPSQP | 1400 | 389 | 19800 | 2180 | 2350 | 5590 | 207 | 114 | 135 | 92.1 | 88.6
GTDNKTATGEAPSQS | 15000 | 30800 | 34300 | 217 | 373 | 21800 | 171 | 531 | 1110 | 116 | 104

Sequence | antibody binding signal [1] | antibody binding signal [2] | antibody binding signal [3] | antibody binding signal [4] | antibody binding signal [5] | antibody binding signal [6] | antibody binding signal [7] | antibody binding signal [8] | antibody binding signal [9] | antibody binding signal [10] | antibody binding signal [11]
KDKKTAAGGTPSPSG | 341 | 195 | 191 | 3090 | 202 | 1590 | 113 | 89.1 | 362 | 84.4 | 139
NKAAAGGTPSQPGAS | 316 | 256 | 4140 | 4270 | 370 | 1400 | 789 | 936 | 1190 | 894 | 1280
NKAAAGEAPSPSGAS | 378 | 2620 | 18200 | 291 | 349 | 11200 | 485 | 852 | 465 | 301 | 892
SGKDKKPATGETPSQ | 28200 | 6630 | 24000 | 556 | 562 | 19800 | 231 | 256 | 182 | 612 | 117
DKKAAAGETPSPSGA | 1510 | 252 | 811 | 295 | 279 | 3240 | 193 | 211 | 200 | 153 | 576
SGTDNKPATGETPSQ | 35500 | 33000 | 41600 | 1310 | 343 | 29900 | 296 | 680 | 351 | 2070 | 198
GKDNKAATGETPSQP | 6180 | 1230 | 37700 | 4220 | 4460 | 12300 | 216 | 354 | 169 | 111 | 124
NKTAAGEAPSPSGAS | 252 | 1580 | 5750 | 301 | 716 | 6740 | 483 | 840 | 714 | 234 | 907
GTENKTAAGETPSQS | 28400 | 1000 | 2030 | 2260 | 2930 | 2800 | 284 | 461 | 189 | 213 | 141
TDNKAAAGGAPSQSG | 290 | 365 | 600 | 3110 | 400 | 318 | 550 | 371 | 262 | 230 | 231
SGKDNKAATGGTPSP | 892 | 440 | 724 | 1370 | 983 | 952 | 183 | 215 | 142 | 72.7 | 168
GKDNKAATGGAPSQS | 604 | 219 | 579 | 955 | 1180 | 1340 | 206 | 200 | 90.8 | 75.4 | 99.7
KDKKTAAGEAPSQPG | 2480 | 6220 | 25600 | 251 | 186 | 3920 | 254 | 112 | 101 | 78.7 | 98.2
DNKAAAGEAPSPPGA | 532 | 316 | 22300 | 144 | 134 | 11700 | 136 | 220 | 143 | 237 | 89.2
KDKKTATGGTPSPPG | 307 | 319 | 189 | 1010 | 219 | 1170 | 172 | 75.3 | 104 | 116 | 85.2
GKEKKTAAGETPSPP | 1270 | 202 | 340 | 1950 | 1830 | 2540 | 115 | 98.6 | 82.8 | 96.4 | 138
GKEKKAAAGETPSPP | 3900 | 290 | 495 | 2270 | 3050 | 3270 | 109 | 88.5 | 106 | 88.3 | 127
SGTEKKPAAGGAPSQ | 2290 | 345 | 5450 | 7460 | 2390 | 1890 | 175 | 1070 | 695 | 404 | 1200
ENKPAAGGAPSQSGA | 352 | 2800 | 4910 | 1320 | 575 | 942 | 248 | 330 | 304 | 145 | 267
SGTDNKTAAGGAPSP | 240 | 490 | 41500 | 6180 | 609 | 667 | 256 | 678 | 1820 | 269 | 324
TPPSGKDNKTAAGGT | 1370 | 274 | 1570 | 2290 | 33400 | 3740 | 303 | 404 | 850 | 107 | 186
KPAAGETPSQPGASS | 2450 | 3930 | 39700 | 195 | 290 | 2440 | 167 | 1650 | 242 | 190 | 167
PSGKDNKAATGEAPS | 25100 | 17600 | 29300 | 2130 | 2720 | 24000 | 308 | 389 | 198 | 100 | 127
EKKTATGGAPSQSGA | 1480 | 252 | 980 | 2830 | 1050 | 811 | 338 | 704 | 112 | 202 | 617
SGKENKAATGEAPSQ | 24400 | 28600 | 37500 | 2660 | 2370 | 23400 | 8510 | 3800 | 120 | 456 | 215
KDKKPAAGETPSPSG | 189 | 221 | 445 | 160 | 182 | 903 | 113 | 100 | 105 | 83.9 | 605
KTAAGETPSPPGASS | 289 | 279 | 524 | 196 | 478 | 965 | 207 | 282 | 208 | 243 | 370
